The full ranking holds about 16,000 sequences; the median of “Z-score” is about -0.37, and the highest 2% start at about 3.1. The list shows a part of the results.
Tested on: RBM10 RRM1-ZnF-RRM2 (GST-tagged construct)
Assay: RNAcompete 7-mer binding Z-score; higher = stronger binding preference
Method in brief: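 GST-tagged RBM10 constructs (20 pmol) and a designed pool of 241 399 RNAs up to 41 nt (1.5 nmol) were allowed to bind for 30 min at 4°C in 1 ml Hepes pH 7.8 buffer with glutathione Sepharose beads. After four 2-min washes at 4°C, bound RNA was identified by microarray hybridisation. Enrichment was scored per heptamer motif as a one-sided Z-score across the probes containing it.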

| Sequence | RNAcompete 7-mer binding Z-score |
| --- | --- |
| UAUUUGA | -0.347 |
| GCGCGGC | 0.811 |
| GAUCCAU | -0.832 |
| CUUCCUU | -0.759 |
| AGUGCGC | 0.297 |
| UGCGCCC | -0.584 |
| GCCCAAC | -0.683 |
| UAUGUAG | 0.221 |
| UGAGAUG | 1.02 |
| CGUACAA | -0.26 |
| UUGCAUC | -0.712 |
| CCUCUCG | -0.814 |
| AGAGAUA | 0.461 |
| GCAAGUA | 0.0167 |
| ACUCAUG | -0.65 |
| GAAGAUC | -0.195 |
| CCGGCAG | -0.0306 |
| GUCGUAA | 0.0167 |
| AUAACUA | -0.595 |
| AAUGCCA | -0.293 |
| CAACAGC | -0.238 |
| UACGUUU | -0.763 |
| GAAGACG | 1.14 |
| UGGAUAG | 2.3 |

| Sequence | RNAcompete 7-mer binding Z-score |
| --- | --- |
| AAUGACG | 0.243 |
| GCCUUUG | -0.755 |
| UAGGUCA | 0.403 |
| GGUCGCA | 0.64 |
| AAUGGAC | 2.1 |
| CUCGGUC | -0.584 |
| AGACUCU | -1.03 |
| GUUACGA | 0.272 |
| ACGUCCU | -0.876 |
| UGGUUAU | 0.519 |
| AUAAAGC | -0.362 |
| CACGAGC | -0.147 |
| CGACCGA | -0.493 |
| CCGGUGC | -0.136 |
| AAAGUAG | 0.749 |
| CAAUAGC | -0.209 |
| UUCGCCA | -0.803 |
| GCCGUCG | -0.209 |
| CAAUCAC | -0.468 |
| ACUUCGC | -0.897 |
| CAACCAA | -0.358 |
| CGCGCCA | -0.457 |
| UGCACCA | -0.581 |
| CUGUCUG | -0.806 |

| Sequence | RNAcompete 7-mer binding Z-score |
| --- | --- |
| GUUUUAC | -0.57 |
| CGGUUAG | 0.691 |
| AGAGCCG | -0.675 |
| CCUAGGC | -0.664 |
| AUCAGAC | -0.144 |
| GUUCUUA | -0.675 |
| CACAGCG | 0.0131 |
| UGGCUUA | -0.409 |
| GGCACAA | 0.487 |
| GGGCCAC | 0.275 |
| GCUUAAA | -0.628 |
| CAACGCU | -0.661 |
| AUGUUAA | -0.537 |
| GCUGCGA | -0.307 |
| CGAAUCU | -0.766 |
| GACAUUU | -0.752 |
| GGUCACU | -0.027 |
| AGUUCAA | -0.311 |
| ACAUAUG | 0.0058 |
| GCACCCA | -0.664 |
| UCCCUGU | -0.799 |
| CCAUCUU | -0.967 |
| AAUUAGG | 1.46 |
| GGAAUCU | -0.227 |

| Sequence | RNAcompete 7-mer binding Z-score |
| --- | --- |
| UAUUUAA | -0.584 |
| ACGUUAC | -0.278 |
| CGGUACG | 0.545 |
| UUGCACU | -0.635 |
| CUGAGAA | -0.431 |
| GAGGAAU | 1.71 |
| CUUCUAC | -0.894 |
| CUAAAGU | -0.588 |
| UGGACCA | 0.239 |
| GGGUCUC | 0.731 |
| GGAGGCA | 2.81 |
| GGCCGGA | 0.803 |
| ACUUAAU | -0.854 |
| AUAUUUU | -0.952 |
| GCAGCCU | -0.551 |
| GUCAGGA | 0.884 |
| GCCCUGC | -0.766 |
| CUAUAAC | -0.723 |
| ACUAGAG | -0.0634 |
| AUGACAG | 0.567 |
| GGAGCCA | 0.654 |
| ACGGAGG | 2.57 |
| AUGGACA | 2.24 |
| GCCAUUC | -0.883 |

| Sequence | RNAcompete 7-mer binding Z-score |
| --- | --- |
| GCAGCUG | -0.133 |
| CUCAGAG | -0.384 |
| AUCUCAU | -0.799 |
| CCUGGAC | -0.548 |
| GUGUUGC | 0.162 |
| AUGGCGU | 0.705 |
| CUGGUAA | 0.0167 |
| GUCGGAU | 0.574 |
| UUUUAUA | -0.715 |
| ACCAGCA | -0.417 |
| GGCAGUU | 0.148 |
| GGGGGUU | 3.29 |
| CUCCAGG | -0.439 |
| AGCGGUA | 1.25 |
| AAUAAAU | -0.3 |
| CUUUCUG | -0.839 |
| GGGGGCA | 2.33 |
| UGCAACU | -0.439 |
| UGACUCU | -0.606 |
| GGACUAA | 0.297 |
| GGUACCG | 0.672 |
| AGCCUUA | -0.901 |
| AUAAGAC | -0.0707 |
| UGGUACC | 0.417 |

| Sequence | RNAcompete 7-mer binding Z-score |
| --- | --- |
| GACUCCC | -0.752 |
| GGAUCCU | -0.0816 |
| GUGAUGG | 2.56 |
| CUCCAUG | -0.643 |
| CUUCAGG | -0.26 |
| CGGUUGU | -0.00148 |
| GAGACCC | -0.588 |
| CACGAUG | -0.286 |
| UCAUAAU | -0.839 |
| CGCCGGG | 0.122 |
| CCCGCAU | -0.755 |
| UCUAUAG | -0.464 |
| CUCCCAU | -0.686 |
| UCGCUUU | -0.77 |
| GACGUGU | 0.111 |
| AGCUUAG | -0.464 |
| CGAGCAU | -0.129 |
| UCAGGAA | 0.993 |
| UCGGCCA | -0.581 |
| UGGAACG | 1.92 |
| AAAAUCG | -0.409 |
| AAAUUAC | -0.621 |
| CUGCUAA | -0.876 |
| AUUUAAA | -0.592 |

| Sequence | RNAcompete 7-mer binding Z-score |
| --- | --- |
| GGUUGCC | 0.206 |
| CCCGACU | -0.748 |
| ACCAAAU | -0.253 |
| UGGUUGU | 1 |
| UGGAUGU | 1.19 |
| UUAAACA | -0.562 |
| GGGCUAU | 0.869 |
| AAUUCUC | -0.69 |
| CCAGAGA | 0.166 |
| CACCUCG | -0.479 |
| AAGCGCC | -0.46 |
| GCGCAUU | -0.439 |
| UGGAUGG | 3.42 |
| GUUUAAG | 0.243 |
| CGUCCGU | -0.592 |
| GUAGGAA | 2.37 |
| CUGCCCA | -0.584 |
| CACGGGU | 1.78 |
| AGACUAG | -0.078 |
| UAUAAUC | -0.428 |
| GAUAAGG | 3.81 |
| CCAUGCU | -0.876 |
| AGAACAG | 0.596 |
| GACAGGU | 2.38 |

| Sequence | RNAcompete 7-mer binding Z-score |
| --- | --- |
| GUGAUUG | 0.508 |
| UAUGCAG | 0.279 |
| UCUAUGA | -0.595 |
| AGUGGAG | 3 |
| ACGGAGC | 1.18 |
| UUAGCUA | -0.533 |
| UGUGCUA | -0.38 |
| CCAUUUU | -1.08 |
| AGCUUCA | -0.683 |
| UGUGUAU | -0.165 |
| GCGCCAG | 0.166 |
| UGGGUAA | 2.38 |
| AAACAGG | 2.71 |
| AUCUGAG | -0.449 |
| AGGUCCU | -0.471 |
| AAAUCCG | -0.646 |
| AUUGCUU | -0.752 |
| CCAUGGC | -0.271 |
| GCCGGCG | -0.209 |
| AGUUCGC | -0.5 |
| GUAUGCA | 0.479 |
| GCAAGUU | -0.00512 |
| UCAGUUA | -0.282 |
| GAAGUGG | 3.12 |

| Sequence | RNAcompete 7-mer binding Z-score |
| --- | --- |
| GCAUAAA | -0.191 |
| AUGCGGU | 1 |
| UCCGAAU | -0.839 |
| CGGUUCA | -0.318 |
| GUUAGGA | 1.91 |
| UCUGGAC | -0.34 |
| AGAUAAA | 0.148 |
| GCAACCA | 0.0058 |
| AGAAUGC | -0.26 |
| GGUUGGC | 2.03 |
| CAGGAUA | 1.21 |
| GCCAUGA | -0.439 |
| GGCAUGC | 0.228 |
| GUAUGAG | 1.09 |
| CUAGAGA | -0.107 |
| AUACUAU | -0.624 |
| GGAAGGC | 3.04 |
| GACUUCG | -0.661 |
| UAACUUG | -0.602 |
| AACAGCC | -0.624 |
| AAAACGA | 0.0896 |
| UGUCAUG | -0.351 |
| GGCUAUC | -0.544 |
| GGGCGUA | 2.28 |

| Sequence | RNAcompete 7-mer binding Z-score |
| --- | --- |
| ACGGGGA | 2.84 |
| UUCUUAU | -0.744 |
| GAUGGAU | 2.3 |
| UGGUAGU | 0.585 |
| AUGGGCG | 3 |
| CCGUCGU | -0.511 |
| AGUGGUC | 0.552 |
| CCCGUAG | -0.537 |
| AUUUAGG | 0.694 |
| AGGAAAA | 1.75 |
| CCAGAGG | 0.621 |
| CCCAGCG | -0.311 |
| GUGCGUG | 1.03 |
| UCAGUGG | 1.07 |
| UGCUUCC | -0.868 |
| GACAGAU | -0.0816 |
| GGACGAU | 0.661 |
| ACCAGCG | 0.0131 |

Reference: the supplement of paper PMC5499739
